In the supplement of paper PMC11417369:
± gives the standard deviation of the averaged measurements. The list shows a part of the results.

Test system: PfAP2-G AP2 domain (GST-tagged)
Assay: gcPBM binding intensity (ln(normalized median fluorescence intensity)); higher = stronger DNA binding
How it was run: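 An Agilent 4 × 180k array of primer-extended double-stranded 36-bp intergenic genomic probes, with negative controls, was incubated for 1 h with GST-tagged P. falciparum DNA-binding domains expressed in E. coli. Alexa488 anti-GST antibody detected bound protein, scanned at 488 nm. Binding intensity is the highest Masliner-normalised natural-log median intensity across replicate spots of either probe orientation.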

Row | Sequence | gcPBM binding intensity (ln)
1 | TATATATGCATTAAAGTGTTTTTTTTTTTTTTTTTT [CACACA_negctrl_site1353] | 10.4 ± 0.25
2 | TTAAAAAATATATACGTTGATATAATACAACTTGAC [CACACA_negctrl_site1551] | 10.1 ± 0.14
3 | ATGTGTATATGTTAATGTACAAATTTTGAAAATGCC [XGTACX_site2685] | 10.9 ± 0.52
4 | TGTATAACCATAAATTGTACAGAAAAAAGTATAAAA [XGTACX_site1493] | 10.9 ± 0.47
5 | ATTTATTTATCAAATATTATCTTAAAAAAAAAAGAA [CACACA_negctrl_site1345] | 9.625 ± 0.078
6 | TTTCAACTTTTGTCATGTACACATAATTTTATTGCA [XGTACX_site6701] | 11.3 ± 0.8
7 | TACCAAAAAAAAAAAAATAAAAATAAAAAAAAAAAT [CACACA_negctrl_site1714] | 9.47 ± 0.028
8 | AAAATAAAAATAAAAGCACACATAAATATATATATA [CACACA_site8409] | 9.87 ± 0.23
9 | TAAAAGTTTTTATACATACACACCTATAAATTAAGT [CACACA_site2446] | 10.14 ± 0.035
10 | CTTTATTATAAGATTACACACATGTCTTATAATTTA [CACACA_site5715] | 9.85 ± 0.057
11 | TAACTATTATAAAAATGTACAAATGAAAATATTTTT [XGTACX_site1438] | 10.8 ± 0.38
12 | TAATTAAATACATTAACACACACACTAATATATACA [CACACA_site8938] | 10.1 ± 0.16
13 | TTCCTGTTAATTACAACACACAATTTTTATTTTATG [CACACA_site779] | 10.15 ± 0.014
14 | AATTTTTTTTTTTTGTGTCCTCATAATTCTTCATTC [XGTACX_site5042] | 11.4 ± 0.82
15 | TAAAAAAAAATATAATGTACGTATAAATATATATTA [XGTACX_site5085] | 11.3 ± 0.75
16 | TAAACATAATAATATACACACATATATTGATATATA [CACACA_site2144] | 9.675 ± 0.035
17 | AAGGCATGACTATCTGCACACATAAAAATAAGAAAT [CACACA_site8180] | 10 ± 0.13
18 | TATATTATAGGTTGTGTACACATATTATATAGTACT [CACACA_site4583] | 11.6 ± 0.88
19 | ATATATTTATAGACTTGTACATATATATACGATATA [XGTACX_site8890] | 10.9 ± 0.61

Row | Sequence | gcPBM binding intensity (ln)
20 | ATTTTTTTGGTAATTTGTACATAATATATACATAAT [XGTACX_site3742] | 11 ± 0.54
21 | AAAATTAAAACCTACACACACATTTAAAAAAAAAAA [CACACA_site3068] | 10.1 ± 0.25
22 | TATATTTATTTAAAAACATGCATTTTTTTTTTCCGT [TGCATGCA_site44] | 9.8 ± 0.042
23 | TTTTTTTTTTTTACATGTACTTATTTTAAATATAAA [XGTACX_site805] | 11.4 ± 0.91
24 | ATTCTTAAAATAAAATGTACGAAAAAAAAAAAAAAA [XGTACX_site1657] | 10.7 ± 0.81
25 | AAAATATGTTAATATTGTACTTAAATAAAAAAAATA [XGTACX_site7152] | 11.2 ± 0.62
26 | TTTTTTATTTTTTACATATTTAGCTCATATTTATAT [GTGCAC_negctrl_site491] | 9.84 ± 0.028
27 | TTTTATGATATTTACACACAAACGTGAGATAGCTCA [CACACA_site2311] | 10.06 ± 0.092
28 | AATATAATATCTATAATATAAAAAAAACAAAAAAAA [CACACA_negctrl_site875] | 9.635 ± 0.092
29 | ATACACATAACATATATATATATATATATATATATC [CACACA_negctrl_site278] | 9.73 ± 0.057
30 | TATATATATATAAACGCATGTAATTTATACACACAT [TGCATGCA_site946] | 10.1 ± 0.13
31 | ATCTTTCCTTTTGCATGTACATATGGAAATACTTTT [XGTACX_site6995] | 11.2 ± 0.73
32 | ATAATTAAGTTATGTGTGCACTGTTAAAAATAAATG | 10.8 ± 0.42
33 | TTCTTCAACAAAAAAATAAAAATAAAATAATAAAAA [GTGCAC_negctrl_site619] | 9.63 ± 0.11
34 | ATATTTTTATATAATGAACACACATATTATATCATT [CACACA_site8446] | 10 ± 0.23
35 | TAAAAGGATACATATACACACATATATATATATATA [CACACA_site2791] | 10.3 ± 0.4
36 | TTTAAAAAATTATATTCACACACATACACATATATA [CACACA_site8076] | 10.1 ± 0.21
37 | ATCCGTGTCTGAAATACACACATGACAATGTGAATG [CACACA_site6556] | 10.1 ± 0.099
38 | TATATATAAATAAACACACACAAATATAATAAAAAA [CACACA_site3526] | 9.87 ± 0.17

Row | Sequence | gcPBM binding intensity (ln)
39 | ATAATGTGTTTGGTATTCTTGATAGATAGTTTTGTG [CACACA_negctrl_site68] | 10.18 ± 0.071
40 | TTTATAATAAAAAATACATGCAGTTATATATAATAA [TGCATGCA_site654] | 9.96 ± 0.014
41 | ATATTGAAAATTTGAAGTACATCTAAATATATTATT [XGTACX_site7817] | 11.4 ± 1
42 | TATTTTACATAAAAGAAAAAAAAAAAAAAAAAAAAA [CACACA_negctrl_site1460] | 9.48 ± 0.28
43 | TTTTAAAAGGTAAAATGTACATATATAATATATACA [XGTACX_site1222] | 11 ± 0.56
44 | ATTCTATTATCCTTTGCACACAAAATAAATGAAAAA [CACACA_site3030] | 10.3 ± 0.52
45 | TATAAAAAAATAATAAAATAATAAAATATATAAATA [TGCATGCA_negctrl_site394] | 9.34 ± 0.16
46 | TTTTTTCAATATTATATCCAAAAATATTTGTAAATA [TGCATGCA_negctrl_site596] | 9.88 ± 0.3
47 | ATTTTTATTTTTTTTGTGCACATTTTCATTTTCTAT [GTGCAC_site9580] | 10.54 ± 0.085
48 | CCTTCCTTGAATTTTACATGCAAAAAATTATAAAAC [TGCATGCA_site663] | 9.96 ± 0.17
49 | TATATATTATATATTTGTACATATATATAAAAACTT [XGTACX_site449] | 10.7 ± 0.4
50 | TTTTTTTTTTTTTTTTGTACTTATAAAATAACATGT [XGTACX_site134] | 11.3 ± 1.2
51 | TAATACTTAGAGAAAAGTACGTATGAACTTATGTAA [XGTACX_site5504] | 11.1 ± 0.54
52 | TATTAATACGGACACACACACACACTAGATAAAATA [CACACA_site4295] | 11.4 ± 0.9
53 | AAAAAAAAAAAAAAAAGTACATATATATATATAATT [XGTACX_site4437] | 11.5 ± 0.86
54 | AGTCCTTACACATATATTAAATATGTGTATATATAT [XGTACX_negctrl_site336] | 10.1 ± 0.13
55 | TTTTGTTTAGTGTATTGTACAATATATCTTTATTTT [XGTACX_site5163] | 10.9 ± 0.51
56 | TATTTAAATACTGACGCATGCATAAGGAGTAATAGT [TGCATGCA_site465] | 10.4 ± 0.18
